PubChem BioAssay (NCI)
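Growth conditions: 96-well plates. Treatment: test compound, 48 hours, 5 concentrations. Analysis: linear interpolation between bracketing concentrations; unreached endpoints set to highest concentration. GI50 marks 50% less growth. TGI: concentration producing complete growth inhibition.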

test system: NCI-H322M lung; experiment: growth of human tumour cells (NCI), 48 h

| Compound | TGI | GI50 |
| --- | --- | --- |
| COC(=O)C1=C(C)N(NC(=O)c2ccccc2)C(C)(O)C12CCOC2=O (stereo not given) | > 100 µM |  |
| Cc1nc(N)sc1-c1ccnc(Nc2ccc(N3CCOCC3)cc2)n1 | > 100 µM | 3.52 µM |
| O=C(c1ccc(O)cc1)C1c2c3c(cc(O)c2C(c2ccc(O)cc2)C1c1cc(O)cc(O)c1)OC(c1ccc(O)cc1)C3c1cc2c(cc1O)OC(c1ccc(O)cc1)C2c1cc(O)cc(O)c1 (stereo not given) | > 12.5 µM |  |
| CNCCNc1c2c(c(NCCNC)c3c(CN(C)C)c[nH]c13)C(=O)c1ccccc1C2=O | 4.48 µM | 1.29 µM |
| CCOC(=O)/C=C/C(C(=O)/C=C/c1ccc(OC2CCCCO2)c(OC)c1)=C(O)\C=C\c1ccc(OC2CCCCO2)c(OC)c1 (stereo not given) | 40.9 µM | 12.8 µM |
| O=C(O)/C=N\Nc1nc2ccccc2[nH]1 | > 100 µM |  |
| O=C(O)CNc1cc(-c2ccccc2)nc(NCC(=O)O)n1 | > 100 µM |  |
| O=C(NCCCCCCNC(=O)c1cccc2ccccc12)Nc1cccc2ccccc12 | > 100 µM |  |
| COC(=O)C(C(=O)C(=O)Nc1cccc(OC)c1)c1cnc2ccccc2n1 (stereo not given) | > 100 µM |  |
| Cc1ccc(S(=O)(=O)Oc2cc(-c3ccccc3)nc3ccccc23)cc1 | 21.4 µM |  |
| CC1CC=CC(O)C1 (stereo not given) | > 100 µM |  |
| COc1ccc(C2CC(c3cccc(Nc4ccncc4)c3)=NN2c2cc(Cl)cc(Cl)c2)cc1 (stereo not given) | 4.25 µM | 1.85 µM |
| COc1cc(-c2cc(=O)c3c(OC)c(OC)c(OC)c(OC)c3o2)c(OC)c(OC)c1OC | > 100 µM |  |
| O=c1[nH]c(-c2ccc3ccccc3c2)nc2ccccc12 | > 100 µM |  |
| Ic1ccc(Nc2nc3nonc3nc2Nc2ccc(I)cc2)cc1 | > 100 µM | 0.264 µM |
| C=C(CCCCC)CN1CCCC1[C@@](C)(O)CC(=O)OCC (stereo not given in full) | > 100 µM |  |
| COc1ccc2c(c1)CCC1C2CC[C@@]2(C)C1CC1=CC(COC(C)=O)C3C(=O)c4ccccc4C(=O)C3C12 (stereo not given in full) | > 100 µM | > 100 µM |
| COc1ccc(C(=O)Sc2c(-c3ccccc3)c(=O)n(-c3ccccc3)c(=S)n2-c2ccccc2)cc1 | > 100 µM |  |
| CC(SC(C)C(=O)N/N=C/c1cccc(Cl)c1)C(=O)N/N=C\c1cccc(Cl)c1 (stereo not given) | 63.3 µM | 16.8 µM |

| Compound | TGI | GI50 |
| --- | --- | --- |
| COc1ccc(/C=C(/C(=O)c2ccc(Cl)cc2)N2C=CC=CC2=C(C#N)C#N)cc1OC | 42.2 µM |  |
| Nc1nc(Cl)c(N)c(NC23CC4CC(CC(C4)C2)C3)n1 | 7.29 µM |  |
| O/N=C1/COC(C(F)(F)F)(C(F)(F)F)C1 | > 100 µM |  |
| COc1ccc(C2S/C(=C\c3ccccc3O)C(=O)N2NC(=O)Cc2ccccc2)cc1 (stereo not given) | > 100 µM |  |
| NC(Cc1cccc([N+](=O)[O-])c1)C(=O)O (stereo not given) | > 100 µM |  |
| OCCN1CN(CCO)CN(c2nc(N3CN(CCO)CN(CCO)C3)nc(N3CN(CCO)CN(CCO)C3)n2)C1 | 0.106 µg/mL | 0.00121 µg/mL |
| CC(O)C(N=Cc1ccccc1[O-])C(=O)[O-].CC(O)C(N=Cc1ccccc1[O-])C(=O)[O-].[Co+2] (stereo not given) | > 100 µM | > 100 µM |
| NC(=NCCCOc1ccc(Cl)cc1)Nc1ccc(C(F)(F)F)cc1 | 12 µM | 3.17 µM |
| CC(=O)OC1Oc2ccccc2-c2oc(=O)c(-c3cc(=O)oc4cc(O)ccc34)cc21 (stereo not given) | 99 µM | 28.2 µM |
| COc1cc(Nc2cn[nH]c2-c2ccc(Cl)cc2)cc(OC)c1OC | > 100 µM | 18.2 µM |
| O=c1nc2occc2cn1C1CC(O)C(CO)O1 (stereo not given) | > 100 µM |  |
| CCCCCCCCCCCCCCCCCCNc1ccn(C2OC(COP(=O)(O)OCC3OC(n4cc(C)c(=O)[nH]c4=O)CC3O)C(O)C2O)c(=O)n1 (stereo not given) | 37.1 µM |  |
| CC(C)=C[C@@H]1C[C@H](C)[C@H]2CC[C@H](C)C3=C2[C@](O)(OC3=O)[C@]1(C)O | > 100 µM | > 100 µM |
| O=[N+]([O-])c1nccn1CC(O)c1ccc(F)cc1 (stereo not given) | > 100 µM |  |
| CC(=O)Nc1ccc(C(=O)NN2C(=O)C(Cl)C2c2ccccc2)cc1 (stereo not given) | > 100 µM |  |
| CSc1nc2c(nc(C)c(=O)n2C2OCC(OC(C)=O)C(OC(C)=O)C2OC(C)=O)c(=O)[nH]1 (stereo not given) | > 100 µM |  |
| Oc1[nH]c2ccccc2c1N=Nc1ccccc1Cl | > 100 µM |  |
| Cc1cc(Br)cc(C)c1NC(=O)C(=O)C(C(=O)c1ccc2ccccc2c1)C1OC(=O)c2ccccc21 (stereo not given) | 29.8 µM |  |
